Molecules are shown by their SMILES. Among all 150,000 compounds or so, about 540 (0.36%) showed an effect of 50% or more. This is one part of the list.

What is called % Inhibition is the relative decrease from the control value, in per cent.

For this experiment, the system named is Plasmodium falciparum. Put plainly: Primary screen in NF54 nanoGlo assay, in single point, at 2uM, 72h; a lower Z score goes with more inhibition. The settings on record: timepoint 72 hour. The format is functional, Erythrocyte.
As for `O=C(CC(=O)NC1CCCCC1)NC1CCCCC1`, the “% Inhibition” value is recorded as -1% and the Z score came out at 0.12.
With `Cc1nccn1CCC(=O)NCC1(CO)CCC1`, the “% Inhibition” value is -20% and the Z score is 2.06.
The matching figures for `O=C(CC1CC2CCC1C2)N1CCC2(CC1)C(F)(F)C2(F)F` (centres undefined): -18% and 2.01.
For `C[C@@H]1CN(S(=O)(=O)c2cnn(C)c2)C[C@H](C)N1CC(F)(F)F`, the “% Inhibition” value is given as -10% and the Z score is listed as 1.61.
The matching figures for `O=C(CCCc1ccccc1)Nc1ccc2c(c1)C(=O)N1CCC[C@H]1C(=O)N2`: -6% and 0.82.
The matching figures for `CCCc1noc(-c2cn(C3CCN(C(=O)c4cccc(C#N)c4)CC3)nn2)n1`: -1% and 0.12.
Consider `Cc1cccnc1C(=O)N1CCC2(CC1)C[C@@H]2NC(=O)C(C)C`, for which the “% Inhibition” value was found to be 1% and the Z score is reported as -0.09.
For `COc1cccc(CNc2nc(-c3cccc(OC)c3)no2)c1`, in that order: -10% and 1.52.
On to `COC(=O)C(C)N1CC(OC)C(OC)C1` (centres undefined), for which the “% Inhibition” value is on record as -1% and the Z score is on record as 0.1.
Consider `OCC1CCCCC1NCc1nc(C(F)(F)F)cs1` (centres undefined), for which the “% Inhibition” value is given as -7% and the Z score is 1.29.
With `CN(CC(=O)NCCCn1cc(Cl)cn1)Cc1ccccn1`, the “% Inhibition” value is listed as -8% and the Z score was determined as 1.55.
For `CCN1CCC(NC(=O)N2CCCC2C2CCC2)CC1C` (centres undefined), in that order: -3% and 0.28.
The matching figures for `CN(Cc1cnccn1)C(=O)C1(Cc2ccc(F)cc2)CCOCC1`: 7% and -0.96.
With `CC(C)(C)c1ccc(=O)n(CC2CN(C3CCCC3O)C2)n1` (centres undefined), the “% Inhibition” value is -6% and the Z score came out at 0.83.
For `CCCCCC(=O)N1CC[C@@H](CC(=O)O)[C@@H](Cc2nc3ccc(C)cc3[nH]2)C1`, in that order: 27% and -3.02.
`COc1ccc(NC(=O)c2cc3c(=O)n(C)ccc3n2C)cc1OC`: the “% Inhibition” value is given as -20% and the Z score came to 1.97.
As for `Cc1[nH]ccc1C(=O)N1CCOC[C@@H]1CC(=O)c1ccco1`, the “% Inhibition” value was -2% and the Z score is 0.23.
The matching figures for `Cc1ccccc1N1CCN(C(=O)c2ccc3sc(N)nc3c2)CC1`: 6% and -0.91.
`Oc1cccc(CN[C@H]2CCCc3occc32)c1Cl`: the “% Inhibition” value came to 78% and the Z score is listed as -12.81.
On to `COc1cc(CC(=O)N2CC[C@H](c3ccc4c(c3)OCO4)C2)ccc1O`, for which the “% Inhibition” value is -11% and the Z score came out at 1.74.
The matching figures for `Cc1ccc([C@@H](NC(=O)NCC(=O)NC2CC2)c2cccnc2)c(C)c1`: 5% and -0.58.
The matching figures for `COc1ccc(Cn2nnc(C(=O)N[C@@H](C)c3nccn3C)c2C)cc1`: -6% and 1.02.
For `O=C(NCCNCc1c[nH]c2ccccc12)c1cccs1`, in that order: -31% and 3.59.
In the case of `CCc1nnc(CN(CC)C(=O)CCN2CCCCO2)o1`, the “% Inhibition” value was -4% and the Z score is listed as 0.79.
The matching figures for `Cc1cc(CN(C)C)cc(NC(=O)[C@H]2CCc3[nH]nnc3C2)c1`: 0% and 0.03.
For `O=C(N[C@H](c1ccc2c(c1)OCCO2)C(F)(F)F)c1ccccc1Cl`, in that order: -3% and 0.28.
For `C[C@@H](Cn1cccn1)NC(=O)c1cc(Cl)c(Cl)n1C`, in that order: 0% and 0.04.
Turning to `OCC[C@H]1CN(Cc2cccc3c2OCO3)CCN1Cc1ccc(F)c(F)c1`, the “% Inhibition” value was -34% and the Z score is 3.04.
For the molecule `CCC(CC)C1CC(NCc2cncs2)CCO1` (centres undefined), the “% Inhibition” value is listed as -8% and the Z score is listed as 1.03.
The matching figures for `O=C(Cc1ccc(Cl)cc1)Nc1ccc(N2CCN(C(=O)c3ccco3)CC2)c(Cl)c1`: -11% and 1.24.
For `Cc1n[nH]c(C)c1CCC(=O)N1C[C@H](C(C)C)[C@@H](N(C)C)C1`, in that order: -9% and 1.2.
For the molecule `CC(NS(C)(=O)=O)C(C)c1ccccc1C(F)(F)F` (centres undefined), the “% Inhibition” value came to 0% and the Z score is 0.06.
For `Cc1cc(CC(=O)N2C[C@H]3CC[C@@H](C2)N(Cc2c(C)noc2C)C3=O)on1`, in that order: 2% and -0.23.
The matching figures for `Cc1cc(-n2cnnc2)ncc1-c1cccc2c1OCC2`: -5% and 0.67.
As for `Cc1cccc(C(=O)NC[C@H](C(=O)O)C2CCCCC2)n1`, the “% Inhibition” value is listed as -10% and the Z score was 1.95.
For the molecule `CN(c1ccc(NC(=O)[C@@H](c2cccnc2)N(C)C)cc1F)C1CCCCC1`, the “% Inhibition” value is recorded as -4% and the Z score is given as 0.49.
For `Cc1oc(-c2ccc3ccccc3c2)nc1CN(C)CCCO`, in that order: 2% and -0.23.
On to `O=C(NCCc1ccc(F)cc1)c1cc(O)ncn1`, for which the “% Inhibition” value is reported as -11% and the Z score is recorded as 1.84.
For `COc1cccc(C(=O)N[C@H]2CCc3[nH]cnc3C2)c1`, in that order: -6% and 0.87.
For the molecule `CC(=O)NS(=O)(=O)CCC1CCCC1`, the “% Inhibition” value was -6% and the Z score came out at 0.63.
For `COC1(c2nccn2C)CN(S(=O)(=O)c2ccccc2F)C1`, in that order: -7% and 0.86.
Turning to `O=C(CCc1ccncc1)Nc1ncccc1Br`, the “% Inhibition” value worked out at 0% and the Z score is -0.03.

The values above are taken from ChEMBL document CHEMBL4888484, “Replenishing the malaria drug discovery pipeline: Screening and hit evaluation of the MMV Hit Generation Library 1 (HGL1) against asexual blood stage Plasmodium falciparum ,using a nano luciferase reporter read-out” (2022).
